# The other results are listed elsewhere or left out. Cut-off read from the data, not from the text of the source: active = 3.2 or more and inactive = the rest. Only a few entries rise above the background.
# Target: SHP2 C-SH2 domain E139D
# Assay: enrichment score (SH2-bound / input frequency) (ratio); bacterial display of known human phosphotyrosine sites (pTyr-Var adds point mutants) read by sequencing; higher = stronger binding; tyrosines were phosphorylated by kinases first
# Conditions: peptide library: pTyr-Var
# 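Note: displayed peptides selected on beads carrying the immobilized SH2 domain, with library peptides lacking any tyrosine serving as negative controls.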
row,Binder,enrichment score
1,IMNLLYHVVGW [GBA_Y412_T408M],active: 4.2
2,SIIKDYFHRGT [GATM_Y203_A208T],inactive: 0.751
3,NFFEFYVDDPP [GCHFR_Y48_YF],inactive: 0.94
4,QRAADYYSQQM [GBP6_Y333],inactive: 0.746
5,ENGPYYTSYPP [GDAP2_Y488],inactive: 0.654
6,RIVEIYTRRLQ [GCH1_Y175_S176T],inactive: 0.375
7,CRWKRYQRSHD [GDPD5_Y30],inactive: 0.253
8,KLADVYQAELR [GFAP_Y116],inactive: 0.908
9,RHLQEYQDPLN [GFAP_Y349_L352P],inactive: 0.69
10,VDGFVYKLHPS [GCK_Y413_S411F],inactive: 0.657
11,TKDTFYKQPVF [GBA_Y451_M455V],inactive: 0.717
12,RHLQEYQDLLN [GFAP_Y349],inactive: 0.877
13,EIPTQYEAMAS [GFAP_Y242_R239P],inactive: 0.644
14,CRWKRYQCSHD [GDPD5_Y30_R32C],inactive: 0.705
15,LSVMSYDLGMF [GBA3_Y174],inactive: 2.07
16,GISDEYHVIQH [GCDH_Y398_R402Q],inactive: 0.692
17,QPGDIYHQTWA [GBA_Y244],inactive: 0.71
18,PYYASYPPSPD [GDAP2_Y491_T489A],inactive: 0.793

# Target: SHP2 C-SH2 domain wild-type
# Assay: as above
# Conditions: peptide library: pTyr-Var
row,Binder,enrichment score
1,IMNLLYHVVGW [GBA_Y412_T408M],active: 3.8
2,SIIKDYFHRGT [GATM_Y203_A208T],inactive: 0.782
3,NFFEFYVDDPP [GCHFR_Y48_YF],inactive: 1
4,QRAADYYSQQM [GBP6_Y333],inactive: 0.663
5,ENGPYYTSYPP [GDAP2_Y488],inactive: 0.508
6,RIVEIYTRRLQ [GCH1_Y175_S176T],inactive: 0.346
7,CRWKRYQRSHD [GDPD5_Y30],inactive: 0.276
8,KLADVYQAELR [GFAP_Y116],inactive: 0.782
9,RHLQEYQDPLN [GFAP_Y349_L352P],inactive: 0.728
10,VDGFVYKLHPS [GCK_Y413_S411F],inactive: 0.687
11,TKDTFYKQPVF [GBA_Y451_M455V],inactive: 0.787
12,RHLQEYQDLLN [GFAP_Y349],inactive: 0.678
13,EIPTQYEAMAS [GFAP_Y242_R239P],inactive: 0.675
14,CRWKRYQCSHD [GDPD5_Y30_R32C],inactive: 0.708
15,LSVMSYDLGMF [GBA3_Y174],inactive: 1.83
16,GISDEYHVIQH [GCDH_Y398_R402Q],inactive: 0.711
17,QPGDIYHQTWA [GBA_Y244],inactive: 0.775
18,PYYASYPPSPD [GDAP2_Y491_T489A],inactive: 0.664

# Target: SHP2 N-SH2 domain L43F
# Assay: as above
# Conditions: peptide library: pTyr-Var
row,Binder,enrichment score
1,IMNLLYHVVGW [GBA_Y412_T408M],active: 4.06
2,SIIKDYFHRGT [GATM_Y203_A208T],inactive: 0.913
3,NFFEFYVDDPP [GCHFR_Y48_YF],inactive: 1.28
4,QRAADYYSQQM [GBP6_Y333],inactive: 0.693
5,ENGPYYTSYPP [GDAP2_Y488],inactive: 0.486
6,RIVEIYTRRLQ [GCH1_Y175_S176T],inactive: 0.318
7,CRWKRYQRSHD [GDPD5_Y30],inactive: 0.234
8,KLADVYQAELR [GFAP_Y116],inactive: 0.895
9,RHLQEYQDPLN [GFAP_Y349_L352P],inactive: 0.711
10,VDGFVYKLHPS [GCK_Y413_S411F],inactive: 0.823
11,TKDTFYKQPVF [GBA_Y451_M455V],inactive: 1.57
12,RHLQEYQDLLN [GFAP_Y349],inactive: 1.27
13,EIPTQYEAMAS [GFAP_Y242_R239P],inactive: 0.719
14,CRWKRYQCSHD [GDPD5_Y30_R32C],inactive: 0.591
15,LSVMSYDLGMF [GBA3_Y174],active: 8.02
16,GISDEYHVIQH [GCDH_Y398_R402Q],inactive: 0.916
17,QPGDIYHQTWA [GBA_Y244],inactive: 0.924
18,PYYASYPPSPD [GDAP2_Y491_T489A],inactive: 0.688

# Target: SHP2 N-SH2 domain T42A
# Assay: as above
# Conditions: peptide library: pTyr-Var
row,Binder,enrichment score
1,IMNLLYHVVGW [GBA_Y412_T408M],active: 3.55
2,SIIKDYFHRGT [GATM_Y203_A208T],inactive: 0.856
3,NFFEFYVDDPP [GCHFR_Y48_YF],inactive: 0.989
4,QRAADYYSQQM [GBP6_Y333],inactive: 0.564
5,ENGPYYTSYPP [GDAP2_Y488],inactive: 0.488
6,RIVEIYTRRLQ [GCH1_Y175_S176T],inactive: 0.393
7,CRWKRYQRSHD [GDPD5_Y30],inactive: 0.334
8,KLADVYQAELR [GFAP_Y116],inactive: 0.715
9,RHLQEYQDPLN [GFAP_Y349_L352P],inactive: 0.647
10,VDGFVYKLHPS [GCK_Y413_S411F],inactive: 0.928
11,TKDTFYKQPVF [GBA_Y451_M455V],inactive: 2.56
12,RHLQEYQDLLN [GFAP_Y349],inactive: 0.849
13,EIPTQYEAMAS [GFAP_Y242_R239P],inactive: 0.652
14,CRWKRYQCSHD [GDPD5_Y30_R32C],inactive: 0.765
15,LSVMSYDLGMF [GBA3_Y174],inactive: 2.08
16,GISDEYHVIQH [GCDH_Y398_R402Q],inactive: 0.674
17,QPGDIYHQTWA [GBA_Y244],inactive: 0.766
18,PYYASYPPSPD [GDAP2_Y491_T489A],inactive: 0.623

# Target: SHP2 N-SH2 domain T52S
# Assay: as above
# Conditions: peptide library: pTyr-Var
row,Binder,enrichment score
1,IMNLLYHVVGW [GBA_Y412_T408M],active: 3.76
2,SIIKDYFHRGT [GATM_Y203_A208T],inactive: 0.831
3,NFFEFYVDDPP [GCHFR_Y48_YF],inactive: 1
4,QRAADYYSQQM [GBP6_Y333],inactive: 0.521
5,ENGPYYTSYPP [GDAP2_Y488],inactive: 0.43
6,RIVEIYTRRLQ [GCH1_Y175_S176T],inactive: 0.303
7,CRWKRYQRSHD [GDPD5_Y30],inactive: 0.256
8,KLADVYQAELR [GFAP_Y116],inactive: 0.782
9,RHLQEYQDPLN [GFAP_Y349_L352P],inactive: 0.574
10,VDGFVYKLHPS [GCK_Y413_S411F],inactive: 0.759
11,TKDTFYKQPVF [GBA_Y451_M455V],inactive: 1.36
12,RHLQEYQDLLN [GFAP_Y349],inactive: 0.899
13,EIPTQYEAMAS [GFAP_Y242_R239P],inactive: 0.653
14,CRWKRYQCSHD [GDPD5_Y30_R32C],inactive: 0.692
15,LSVMSYDLGMF [GBA3_Y174],active: 9.88
16,GISDEYHVIQH [GCDH_Y398_R402Q],inactive: 0.831
17,QPGDIYHQTWA [GBA_Y244],inactive: 0.762
18,PYYASYPPSPD [GDAP2_Y491_T489A],inactive: 0.623

# Target: SHP2 N-SH2 domain wild-type
# Assay: as above
# Conditions: peptide library: pTyr-Var
row,Binder,enrichment score
1,IMNLLYHVVGW [GBA_Y412_T408M],active: 3.59
2,SIIKDYFHRGT [GATM_Y203_A208T],inactive: 0.86
3,NFFEFYVDDPP [GCHFR_Y48_YF],inactive: 0.773
4,QRAADYYSQQM [GBP6_Y333],inactive: 0.819
5,ENGPYYTSYPP [GDAP2_Y488],inactive: 0.476
6,RIVEIYTRRLQ [GCH1_Y175_S176T],inactive: 0.183
7,CRWKRYQRSHD [GDPD5_Y30],inactive: 0.243
8,KLADVYQAELR [GFAP_Y116],inactive: 0.797
9,RHLQEYQDPLN [GFAP_Y349_L352P],inactive: 0.901
10,VDGFVYKLHPS [GCK_Y413_S411F],inactive: 0.852
11,TKDTFYKQPVF [GBA_Y451_M455V],inactive: 0.719
12,RHLQEYQDLLN [GFAP_Y349],inactive: 0.907
13,EIPTQYEAMAS [GFAP_Y242_R239P],inactive: 0.558
14,CRWKRYQCSHD [GDPD5_Y30_R32C],inactive: 0.603
15,LSVMSYDLGMF [GBA3_Y174],inactive: 2.71
16,GISDEYHVIQH [GCDH_Y398_R402Q],inactive: 0.965
17,QPGDIYHQTWA [GBA_Y244],inactive: 0.936
18,PYYASYPPSPD [GDAP2_Y491_T489A],inactive: 0.67
